The record followed here is patent US20180009889A1 (Novartis, published 2018).

The target of one assay is Human Notch3-Gal4-VP16 (human). In words: cell-based or functional assay.
Assay [1] concerns the target T1, cyno LBD.
T1 construct: also called N3_EGF4-11_Fc cyno
In words: ELISA: IgG titrated on directly coated recombinant antigen.

Assay [2] concerns the target T1, cyno LBD. In words: Biacore (SPR); set-up not stated on the sheet.

B1: 20364 (antibody, human IgG1, lambda)
heavy: QVQLVESGGGLVKPGGSLRLSCAASGFTFSSYTMNWVRQAPGKGLEWVGRVKGEQFGGSIHYAASVKGRFTISRDDSKNTLYLQMNSLKTEDTAVYYCARERSRAGSIFDPWGQGTLVTVSSASTKGPSVFPLAPSSKSTSGGTAALGCLVKDYFPEPVTVSWNSGALTSGVHTFPAVLQSSGLYSLSSVVTVPSSSLGTQTYICNVNHKPSNTKVDKRV[human IgG1 Fc not shown]
light: DIVLTQPPSVSGAPGQRVTISCSGSSSNIGFNYVSWYQQLPGTAPKLLIYYNNQRPSGVPDRFSGSKSGTSASLAITGLQAEDEADYYCSTWTGTSESHVFGGGTKLTVLGQPKAAPSVTLFPPSSEELQANKATLVCLISDFYPGAVTVAWKADSSPVKAGVETTTPSKQSNNKYAASSYLSLTPEQWKSHRSYSCQVTHEGSTVEKTVAPTECS
In general, EC50 refers to the concentration needed to bring the measured effect to its halfway point. As a reminder, the Kd is the equilibrium constant for the complex coming apart. Lower therefore signals tighter binding. Consider B1, for which, in the assay with Human Notch3-Gal4-VP16, the “% inhibition, Delta 1 co-culture Notch3 reporter gene assay” value was 91%; the “% inhibition, Jagged1 co-culture Notch3 reporter gene assay” value was 72%; the “IC50, Delta 1 co-culture Notch3 reporter gene assay” value worked out at 1.8 nM; the “IC50, Jagged1 co-culture Notch3 reporter gene assay” value was 2 nM. For the same molecule, the EC50 in the assay with cyno LBD [1] was 1.5 nM. This molecule also gave a Kd in the assay with cyno LBD [2] of 0.1 nM.

B2: 20802 (antibody, human IgG1, lambda)
heavy: QVQLVESGGGLVKPGGSLRLSCAASGFTFSSYTMNWVRQAPGKGLEWVGRVKGEQFGGSIHYAASVKGRFTISRDDSKNTLYLQMNSLKTEDTAVYYCARERSRAGSIFDPWGQGTLVTVSSASTKGPSVFPLAPSSKSTSGGTAALGCLVKDYFPEPVTVSWNSGALTSGVHTFPAVLQSSGLYSLSSVVTVPSSSLGTQTYICNVNHKPSNTKVDKRV[human IgG1 Fc not shown]
light: QSVLTQPPSVSGAPGQRVTISCSGSSSNIGFNYVSWYQQLPGTAPKLLIYYNNQRPSGVPDRFSGSKSGTSASLAITGLQAEDEADYYCSTWTGTSESHVFGGGTKLTVLGQPKAAPSVTLFPPSSEELQANKATLVCLISDFYPGAVTVAWKADSSPVKAGVETTTPSKQSNNKYAASSYLSLTPEQWKSHRSYSCQVTHEGSTVEKTVAPTECS
Consider B2, for which, in the assay with Human Notch3-Gal4-VP16, the “% inhibition, Delta 1 co-culture Notch3 reporter gene assay” value was determined as 93%; the “% inhibition, Jagged1 co-culture Notch3 reporter gene assay” value worked out at 70%; the “IC50, Delta 1 co-culture Notch3 reporter gene assay” value was 3.9 nM; the “IC50, Jagged1 co-culture Notch3 reporter gene assay” value was found to be 2.1 nM. Further, the EC50 with cyno LBD [1] turned out to be 0.7 nM.
